{
  "source": "patent US9580749B2",
  "about": "“Dyes and labeled molecules” (Biotium, Inc., priority 2005, dated 2017)",
  "tested_on": "UBC fragment (SEQ ID NO: 8) from human genomic DNA",
  "assay": "qPCR titration of human genomic DNA (UBC fragment)",
  "settings": "10^5 down to 10 copies of human DNA; AOAO-12 A495=0.1, SYBR Green I A495=0.025",
  "protocol": "Amplifications of a UBC fragment (SEQ ID NO: 8) from human genomic DNA were performed under conditions similar to those set forth in Example 45, with either SYBR Green I (final absorption peak at 495 nm corresponds to an optical density of 0.025, or A495=0.025) or AOAO-12 (final A495=0.1), except that (1) different forward and reverse primers sets (5′-ACTGGTAAGACCATCACC-3′ (SEQ ID NO: 9) and 5′-GCAATGAAATTTGTTGAA-3′ (SEQ ID NO: 10)) were used, and (2) a series of 10-fold dilutions of human DNA served as the templates.",
  "data": [
    {"smiles": "CN(C)c1ccc2cc3ccc(N(C)C)cc3[n+](CCCCCC(=O)NCCOCCNC(=O)CCCCC[n+]3c4cc(N(C)C)ccc4cc4ccc(N(C)C)cc43)c2c1", "note": "[AOAO-12]", "values": [
      {"measurement": "signal strength in qPCR", "result": "superior to SYBR Green I in signal strength"}
    ]}
  ]
}
